Measurements as given in article PMC4336329 (PLoS ONE, 2015).
Hit rate of the full screen: of about 310,000 compounds, about 2,200 (0.71%) showed an effect of 50% or more. Effects have a minus sign here. The list shows a part of the results.

target: human ether-à-go-go-related gene (hERG) potassium channel (human, UniProt Q12809); test: primary screen, population patch clamp on CHO cells stably expressing hERG
Sequence (Q12809 whole entry, looked up): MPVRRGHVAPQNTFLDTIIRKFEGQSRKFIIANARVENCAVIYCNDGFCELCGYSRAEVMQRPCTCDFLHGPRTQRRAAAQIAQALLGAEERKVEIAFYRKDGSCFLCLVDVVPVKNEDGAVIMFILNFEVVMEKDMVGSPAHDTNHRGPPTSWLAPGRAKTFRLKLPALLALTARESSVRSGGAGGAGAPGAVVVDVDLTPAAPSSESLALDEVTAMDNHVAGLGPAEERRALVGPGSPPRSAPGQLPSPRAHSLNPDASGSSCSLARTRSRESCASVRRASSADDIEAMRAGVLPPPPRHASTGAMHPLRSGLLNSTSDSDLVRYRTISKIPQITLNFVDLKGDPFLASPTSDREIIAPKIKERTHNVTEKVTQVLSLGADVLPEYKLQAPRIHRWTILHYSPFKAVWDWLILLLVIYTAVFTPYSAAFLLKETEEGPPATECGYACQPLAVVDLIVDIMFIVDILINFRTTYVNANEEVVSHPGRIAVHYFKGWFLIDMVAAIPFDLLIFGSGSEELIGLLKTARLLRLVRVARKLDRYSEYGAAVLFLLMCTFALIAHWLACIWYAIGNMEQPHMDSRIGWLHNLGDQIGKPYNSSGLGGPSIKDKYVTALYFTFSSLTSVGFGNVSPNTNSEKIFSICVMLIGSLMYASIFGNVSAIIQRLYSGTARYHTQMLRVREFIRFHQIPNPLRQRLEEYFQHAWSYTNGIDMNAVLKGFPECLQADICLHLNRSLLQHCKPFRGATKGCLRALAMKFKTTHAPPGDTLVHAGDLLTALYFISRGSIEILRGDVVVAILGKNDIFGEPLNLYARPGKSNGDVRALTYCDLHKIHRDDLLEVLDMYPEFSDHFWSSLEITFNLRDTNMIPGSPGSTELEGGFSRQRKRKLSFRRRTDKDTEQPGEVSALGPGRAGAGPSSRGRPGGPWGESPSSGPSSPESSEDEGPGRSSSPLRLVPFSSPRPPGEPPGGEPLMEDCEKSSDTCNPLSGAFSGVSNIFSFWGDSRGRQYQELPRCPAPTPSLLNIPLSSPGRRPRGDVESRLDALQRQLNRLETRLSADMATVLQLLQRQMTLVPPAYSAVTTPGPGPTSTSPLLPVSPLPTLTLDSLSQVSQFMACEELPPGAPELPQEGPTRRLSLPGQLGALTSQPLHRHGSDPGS

Going from `COCCn1nnnc1SCC(=O)c1ccccc1` to `COC(=O)c1ccc(NC(=O)c2ccccc2)o1`, the “hERG current change (%, negative = inhibition) at 1uM” value rises from 6.62% to 16.7%.

Going from `O/N=C1/C2C3C(Br)C4C5CC(C1C53)C24` (centres unmarked) to `CCN(CC(=O)Nc1ccccc1OC)C(=O)CC1CC2CCC1C2` (centres unmarked), the “hERG current change (%, negative = inhibition) at 1uM” value falls from 12.2% to 7.01%.

First: Cc1ccc(C(=O)N[C@H](C(=O)OCC(=O)NC2CCS(=O)(=O)C2)C(C)C)cc1 (some centres unmarked)
Second: C=CCNC(=O)NC(=O)COC(=O)[C@H](C)NS(=O)(=O)c1c(C)c(C)cc(C)c1C
The “hERG current change (%, negative = inhibition) at 1uM” value of the first is higher: 19.4% for the first, 6.58% for the second.

Compared with `COc1ccc(C(=O)OCC(=O)Nc2cc(S(=O)(=O)N3CCOCC3)ccc2N2CCCC2)cc1`, `COc1ccc(S(=O)(=O)N2CCOCC2)cc1NC(=O)CN1CCC(Cc2ccccc2)CC1` is higher in “hERG current change (%, negative = inhibition) at 1uM” value: 11.9% for the first, 12.1% for the second.

First: CCCc1nnc(NC(=O)CCC(=O)NCCc2ccc(OC)c(OC)c2)s1
Second: COc1ccc(-c2nnn(CC(=O)N(CC(=O)NCCC(C)C)c3ccccc3)n2)cc1OC
The “hERG current change (%, negative = inhibition) at 1uM” value of the first is lower: -9.94% for the first, 9.66% for the second.

Going from `O=C(Cn1nc(-c2ccc(Cl)cc2)ccc1=O)NCC1CCCO1` (centres unmarked) to `Cc1ccc(S(=O)(=O)N2CCCC(CCC(=O)NCc3ccccc3F)C2)s1` (centres unmarked), the “hERG current change (%, negative = inhibition) at 1uM” value falls from 2.32% to 2.25%.

Compared with `O=C(CNC(=O)c1ccccc1F)Nc1ccncc1`, `COc1cccc(NC(=O)N[C@@H](Cc2ccccc2)C(=O)O)c1` is lower in “hERG current change (%, negative = inhibition) at 1uM” value: 16.3% for the first, 12.4% for the second.

Compared with `COc1cc(C(=O)NCc2ccc(-n3cccc3)cc2)cc(OC)c1OC`, `COc1cc(C(=O)NC(=S)Nc2nc(-c3ccc(F)cc3)cs2)cc(OC)c1OC` is lower in “hERG current change (%, negative = inhibition) at 1uM” value: 16.9% for the first, 8.92% for the second.

First: CCN1CCN(C(=S)c2ccc(Cl)c(Cl)c2)CC1
Second: COc1c(Cl)ccc(Cl)c1C(=O)NC(=S)N1CCOCC1
The “hERG current change (%, negative = inhibition) at 1uM” value of the first is lower: -11.3% for the first, 0.869% for the second.

Compared with `O=C(c1ccco1)N1CCN(C(=O)c2ccccc2Oc2ccccc2)CC1`, `O=C(c1cc(Br)ccc1O)N1CCN(S(=O)(=O)Cc2ccccc2)CC1` is higher in “hERG current change (%, negative = inhibition) at 1uM” value: -0.621% for the first, 4.88% for the second.

First: Cc1cc2ncc(-c3ncc(C(F)(F)F)cc3Cl)cn2n1
Second: FC(F)(F)c1nnc2sc(-c3ccccn3)nn12
The “hERG current change (%, negative = inhibition) at 1uM” value of the first is lower: 3.74% for the first, 7.91% for the second.

Compared with `COc1ccc(NC(=O)N[C@@H](Cc2ccccc2)C(=O)NN)cc1`, `COc1ccc(NC(=O)C(C)Sc2ccccc2)cc1` (centres unmarked) is lower in “hERG current change (%, negative = inhibition) at 1uM” value: 5.67% for the first, 4.73% for the second.

Compared with `N#CCCSc1ncnc2c1oc1ccccc12`, `Cc1csc(Cn2c(CN(C)C)nc3ccccc3c2=O)n1` is higher in “hERG current change (%, negative = inhibition) at 1uM” value: 4.55% for the first, 8.72% for the second.

Compared with `Cc1ccc(C(=O)NC(=S)Nc2cc(-c3nc4ccccc4s3)ccc2C)cc1`, `COc1ccc(O)c(C(=O)c2cnc3nc4ccccc4n3c2)c1` is lower in “hERG current change (%, negative = inhibition) at 1uM” value: 15% for the first, 1.95% for the second.

Compared with `Cc1cccc(NC(=O)c2nc[nH]c2C(=O)N2CCN(C(=O)OC(C)(C)C)CC2)c1`, `Cc1cccc(NC(=O)CSCC(=O)NNC(=O)c2ccoc2C)c1` is lower in “hERG current change (%, negative = inhibition) at 1uM” value: 9.03% for the first, 4.82% for the second.

First: O=C(O)C(Cc1c[nH]c2ccccc12)NS(=O)(=O)c1ccc(Cl)c(C(F)(F)F)c1 (centres unmarked)
Second: CCN(C(=O)Cn1c(=O)oc2ccccc21)c1cccc(C(F)(F)F)c1
The “hERG current change (%, negative = inhibition) at 1uM” value of the first is lower: 7.86% for the first, 12.3% for the second.

Compared with `COc1ccccc1NC(=O)c1nn(-c2ccc(OC(F)(F)F)cc2)ccc1=O`, `CCC(=O)Nc1ccc2c(c1)ncn2-c1ccccc1OC` is lower in “hERG current change (%, negative = inhibition) at 1uM” value: 13.4% for the first, -3.76% for the second.

Going from `CCOc1ccc(Br)cc1S(=O)(=O)Nc1ncn[nH]1` to `O=C(Nc1ccc(S(=O)(=O)Nc2ncccn2)cc1)c1ccc2ncsc2c1`, the “hERG current change (%, negative = inhibition) at 1uM” value falls from 22.8% to 9.19%.

Compared with `CCOC(=O)N1CCN(C(=O)Cc2ccc(-n3c(=O)[nH]c4ccccc4c3=O)cc2)CC1`, `O=[N+]([O-])c1ccc(NC(=S)N2CCN(c3ccc(F)cc3)CC2)cc1` is higher in “hERG current change (%, negative = inhibition) at 1uM” value: 4.27% for the first, 13% for the second.

Going from `CN(C)S(=O)(=O)c1ccc(C(=O)NCc2ccccn2)cc1` to `CCNC(=O)CC1C(=O)N(c2ccc(F)cc2)C(=O)N1Cc1ccccn1` (centres unmarked), the “hERG current change (%, negative = inhibition) at 1uM” value falls from 14.5% to -5.1%.

Compared with `Cc1ccc(-n2c(C)csc2=N)cc1`, `Cc1cccc(C)c1OCCNC(=O)CCC(=O)c1ccccc1` is lower in “hERG current change (%, negative = inhibition) at 1uM” value: 17.7% for the first, 8.59% for the second.

Compared with `Cc1cc(C(=O)N2CCC(C(=O)O)CC2)c(C)o1`, `Cc1oc(C(=O)O)cc1CSCc1ccoc1C(=O)O` is higher in “hERG current change (%, negative = inhibition) at 1uM” value: 3.26% for the first, 10.4% for the second.

Compared with `O=C1c2ccccc2C(=O)N1CCc1csc(NNc2nc(CCN3C(=O)c4ccccc4C3=O)cs2)n1`, `COc1ccc2c(c1OC)C(=O)N1c3ccccc3C(=O)N(c3ccccc3F)C21` (centres unmarked) is higher in “hERG current change (%, negative = inhibition) at 1uM” value: 0.532% for the first, 5.43% for the second.

Going from `Cc1cccc(CC(C)NC(=O)c2oc3c(F)cccc3c2C)n1` (centres unmarked) to `COc1ccc(C(C(=O)NC(C)C)N(C(=O)CCC(=O)Nc2nccs2)c2ccccc2F)cc1` (centres unmarked), the “hERG current change (%, negative = inhibition) at 1uM” value falls from 13.5% to 11.3%.

Compared with `O=C(O)C(Cc1ccccc1)NC(=O)C(c1ccccc1)c1ccccc1` (centres unmarked), `O=C(CCCc1ccccc1)N=C1SC2CS(=O)(=O)CC2N1c1ccccc1F` (centres unmarked) is lower in “hERG current change (%, negative = inhibition) at 1uM” value: 12.4% for the first, 4.65% for the second.

Compared with `O=c1[nH]c(C2CCCN(S(=O)(=O)c3ccccc3)C2)nc2c1nnn2Cc1ccc2c(c1)OCCO2` (centres unmarked), `COc1cnc(-c2ccccc2)nc1Oc1ccc(Cl)cc1C` is lower in “hERG current change (%, negative = inhibition) at 1uM” value: 13.7% for the first, 7.62% for the second.

First: COc1ccc2nc(N/C(N)=N/C(=S)Nc3ccc(C)c(C)c3)nc(C)c2c1
Second: COc1cc(OC)cc(-c2cc3ccc(OC)cc3cn2)c1
The “hERG current change (%, negative = inhibition) at 1uM” value of the first is lower: 10.5% for the first, 16.3% for the second.

Compared with `COc1cccc(-c2cc(C(F)(F)F)nc(N3CCOCC3)n2)c1`, `Cc1nc(N)nc(N)c1CCCc1ccc(Cl)c(Cl)c1` is lower in “hERG current change (%, negative = inhibition) at 1uM” value: 12.7% for the first, 8.81% for the second.
